The whole screen tested about 310,000 compounds, of which about 14,000 (4.5%) showed an effect of 50% or more. The effect is printed as a negative number. Some of the results follow.
These molecules were tested against human ether-à-go-go-related gene (hERG) potassium channel (human, UniProt Q12809) (assay: primary screen, population patch clamp on CHO cells stably expressing hERG).
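Also: peak tail current of the secondary pulse compared with the same well before compound.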

human ether-à-go-go-related gene (hERG) potassium channel, sequence (Q12809 whole entry, looked up): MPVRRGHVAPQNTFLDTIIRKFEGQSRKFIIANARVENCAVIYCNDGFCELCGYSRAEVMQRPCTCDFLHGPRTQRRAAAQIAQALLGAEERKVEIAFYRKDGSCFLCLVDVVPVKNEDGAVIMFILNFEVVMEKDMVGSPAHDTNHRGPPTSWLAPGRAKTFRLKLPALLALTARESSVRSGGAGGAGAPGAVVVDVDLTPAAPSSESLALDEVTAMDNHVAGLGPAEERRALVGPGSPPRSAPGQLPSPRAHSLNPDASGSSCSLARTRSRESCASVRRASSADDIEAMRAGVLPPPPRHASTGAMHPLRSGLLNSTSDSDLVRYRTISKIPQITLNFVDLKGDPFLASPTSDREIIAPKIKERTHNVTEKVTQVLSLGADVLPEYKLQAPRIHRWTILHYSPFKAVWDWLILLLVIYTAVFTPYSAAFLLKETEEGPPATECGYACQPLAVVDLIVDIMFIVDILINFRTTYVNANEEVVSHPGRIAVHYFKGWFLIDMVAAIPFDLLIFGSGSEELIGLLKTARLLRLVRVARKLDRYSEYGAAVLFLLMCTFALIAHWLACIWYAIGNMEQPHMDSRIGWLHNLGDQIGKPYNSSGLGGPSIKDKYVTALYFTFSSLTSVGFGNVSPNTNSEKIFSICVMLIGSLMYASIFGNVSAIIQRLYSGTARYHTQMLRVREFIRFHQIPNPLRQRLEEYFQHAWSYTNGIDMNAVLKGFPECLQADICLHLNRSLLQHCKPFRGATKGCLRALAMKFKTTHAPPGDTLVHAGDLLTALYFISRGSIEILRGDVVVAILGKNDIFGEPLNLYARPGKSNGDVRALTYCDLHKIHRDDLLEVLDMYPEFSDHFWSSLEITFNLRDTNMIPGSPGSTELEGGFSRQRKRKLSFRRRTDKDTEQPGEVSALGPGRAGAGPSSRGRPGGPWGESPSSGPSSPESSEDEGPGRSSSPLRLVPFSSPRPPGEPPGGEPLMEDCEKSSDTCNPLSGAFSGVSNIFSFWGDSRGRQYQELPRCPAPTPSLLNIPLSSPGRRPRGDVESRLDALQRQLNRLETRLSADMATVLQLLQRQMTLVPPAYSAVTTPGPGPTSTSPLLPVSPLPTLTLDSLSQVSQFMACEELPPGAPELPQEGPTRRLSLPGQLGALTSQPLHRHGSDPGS

Compound | hERG current change (%, negative = inhibition) at 10uM
Cc1ccc(C)c(S(=O)(=O)Nc2ccc(C(=O)N3CC(C)OC(C)C3)cc2)c1 (stereo not shown) | -5.28%
CCOC(=O)n1c(O)c(N=NC(N)=S)c2cc(C)ccc21 | 16.7%
CCC1CCCCN1Cc1nc2c(c(=O)n(C)c(=O)n2C)n1CC(C)C (stereo not shown) | 1.79%
COc1ccc(N2C(=O)c3ccccc3NC23CCC(C)CC3)cc1 (stereo not shown) | 4.35%
Cc1ccc(NC(=O)CSCC(=O)Nc2ccc(S(=O)(=O)N3CCCC3)cc2)cc1 | -19.9%
O=C(Nc1ccccc1F)c1cc2nc(C(F)F)cc(C(F)F)n2n1 | -5.76%
Cn1c(=O)[nH]c(=O)c2c1[nH]c(=S)n2Cc1ccccc1 | 17.5%
CN(C)C(=O)c1c2c(nc3ccccc13)-c1ccccc1CC2 | -7.35%
O=C1CSC(=Nc2ccc(O)cc2)N1c1ccc(O)cc1 | 4.11%
COc1ccc(/C=N/n2c(-c3cccs3)n[nH]c2=S)cc1 | 11.6%
O=C(O)C(=O)O.S=C(NCC1CCCO1)N1CCN(Cc2ccccc2)CC1 (stereo not shown) | -1.99%
COc1ccc(NC(=O)N2CCc3ccccc32)cc1 | 1.67%
Cc1cc(=O)[nH]c2cc(O)ccc12 | -5.54%
Cc1ccc(-n2c(-c3cccs3)nc3ccccc3c2=O)cc1 | 11.1%
CC(Oc1ccc(Br)cc1)C(=O)Nc1ccc(S(=O)(=O)Nc2nccs2)cc1 (stereo not shown) | 5.19%
Nc1c(-c2ccccc2)c(CN2CCOCC2)nn1-c1ccc(F)cc1 | -20.3%
C=CCOC(=O)Nc1snnc1C | -1.38%
Cc1cccc2cc(C#N)c(NCCNC(=O)COc3ccccc3)nc12 | 30.8%
COc1ccc(/C=N/NC(=S)Nc2ccccc2)cc1COc1cccc(C)c1C | 19.5%
O=C(CSCc1ccccc1Cl)NNC(=O)c1ccccc1 | -3.8%
O=C(NC(=S)Nc1ccccc1N1CCCCC1)c1cccs1 | 6.21%
Cc1ccccc1C(=O)NCCc1nnc(SCC(=O)Nc2nc(-c3ccccc3)cs2)n1C | 7.36%
O=C(CN1C(=O)CCC1=O)Nc1ccc2c3c(cccc13)CC2 | -15.2%
COc1ccc(NC(=O)c2cccnc2Nc2ccc(OC)cc2)cc1 | 13.6%
O=C1CCC(=O)N1CN(C(=O)c1ccco1)c1ccc(Cl)c(Cl)c1 | 3.11%

Source: publication PMC4336329 (PLoS ONE, 2015)
